Source: US20250282802A1, “PHOSPHONATE PRODUCTS AND METHODS” (priority 2020, published 2025)

Key:
[1] = tested on: Arabidopsis thaliana Col-0 seedlings; details: A. thaliana Col-0 seedlings, seven days growth
[2] = tested on: mustard seedlings (Brassica sp.); details: for root length of seedlings relative to water-treated controls / total dry weight of seedlings relative to water-treated controls: mustard seedlings, seven days growth
[3] = seedlings, seven days, dose-dependent

O=C(O)CNCP(=O)(O)O [glyphosate, reference compound]
root length of seedlings relative to water-treated controls [1]: substantial reduction | total dry weight of seedlings relative to water-treated controls [1]: substantial reduction | root length of seedlings relative to water-treated controls [2]: substantial reduction | total dry weight of seedlings relative to water-treated controls [2]: substantial reduction

O=C(O)/C=C(\C(=O)O)C(O)P(=O)(O)O (stereo not shown) [pantaphos, 2-(hydroxy(phosphono)methyl)maleate]
root length of seedlings relative to water-treated controls [1]: substantial reduction | total dry weight of seedlings relative to water-treated controls [1]: substantial reduction | root length of seedlings relative to water-treated controls [2]: substantial reduction | total dry weight of seedlings relative to water-treated controls [2]: substantial reduction | potency versus glyphosate in the dry weight assays ([2]; seedlings, seven days): significantly more potent | potency versus phosphinothricin in the root length assay ([2]; seedlings, seven days): significantly more potent | concentrations with significant activity in the dry weight assay [2, 3]: above 31.3 μM | concentrations with significant activity in the root length assay [2, 3]: ≥ 1.95 µM

CP(=O)(O)CC[C@H](N)C(=O)O [phosphinothricin, reference compound]
root length of seedlings relative to water-treated controls [1]: substantial reduction | total dry weight of seedlings relative to water-treated controls [1]: substantial reduction | root length of seedlings relative to water-treated controls [2]: substantial reduction | total dry weight of seedlings relative to water-treated controls [2]: substantial reduction
